Experimental data: publication PMC7819943, “Rice protein-binding microarrays: a tool to detect cis-acting elements near promoter regions in rice”
This is one part of the list.

Each sequence was assayed against T1, OsWOX13 (Oryza sativa, UniProt Q5QMM3 1-267) (assay: protein-binding microarray (RPBM); PBS, 2% BSA, 51.3 ng/ul salmon testes DNA, 50 uM zinc acetate, 200 nM TF, 25 C, 1 h; high values mean tight binding). Conditions: protein: recombinant; tags: N-terminal polyhistidine and DsRed monomer fusion (pET32a); label: CyDye5-dUTP incorporated in the synthesized complementary strand; 3' TTTTT single-stranded linker to array surface; dsDNA, one strand shown.
T1 sequence: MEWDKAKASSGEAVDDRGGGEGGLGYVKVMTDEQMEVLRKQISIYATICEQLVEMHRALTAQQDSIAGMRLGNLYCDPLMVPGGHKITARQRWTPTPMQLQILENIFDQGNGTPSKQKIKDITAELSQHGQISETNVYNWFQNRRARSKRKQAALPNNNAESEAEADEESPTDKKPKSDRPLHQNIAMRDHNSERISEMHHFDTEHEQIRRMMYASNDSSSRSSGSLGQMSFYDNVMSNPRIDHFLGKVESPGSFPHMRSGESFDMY
Method in brief: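 Transcription factors were made in E. coli BL21-CodonPlus as N-terminal fusions to a polyhistidine tag and DsRed, then purified on Ni–NTA. After primer extension with Cy5-dUTP and blocking with 2% BSA, a custom Agilent array was exposed for 1 h at 25 °C to 200 nM protein in PBS, 2% BSA, salmon testes DNA and 50 µM zinc acetate. Washed arrays were scanned on an Axon 4000B, and the binding signal is per-feature fluorescence intensity in arbitrary units.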

Row | Sequence | binding signal
1 | CTGTTGTGAACAAACTAATTATTGGATGCTGAATTGATGACGGAGTCACCTAGTGCAG | 4900 fluorescence intensity (a.u.)
2 | GATGATTTTGTAACTCGGTGACAAGATGAGGGACCTCTGGCGGAGTCACCTAGTGCAG | 23200 fluorescence intensity (a.u.)
3 | ATATATATATATATATATATATATATATATAGATACAATCCGGAGTCACCTAGTGCAG | 6200 fluorescence intensity (a.u.)
4 | AACATTGATTAATATTGGTCAAAATATTTTCAACTCTAAACGGAGTCACCTAGTGCAG | 19200 fluorescence intensity (a.u.)
5 | ACCTAAATTTGAATGCTTACATCATTTTGATGATAAATAACGGAGTCACCTAGTGCAG | 8650 fluorescence intensity (a.u.)
6 | ACAAAATTAAGTTTAAAACTGACTTTATAATTTAAAGTTGCGGAGTCACCTAGTGCAG | 9010 fluorescence intensity (a.u.)
7 | CTTATATCTTAATTGGACTTGACTTCGGGCCAGAAGTACACGGAGTCACCTAGTGCAG | 25200 fluorescence intensity (a.u.)
8 | CTATACTGATCTGTCCGGGCTAATTTATTCGGTCTTTTGCCGGAGTCACCTAGTGCAG | 3950 fluorescence intensity (a.u.)
9 | AAAATAACTAATTGCACAGATTGTGACTAATTTGCGAGACCGGAGTCACCTAGTGCAG | 34900 fluorescence intensity (a.u.)
10 | CCAGGTTAATTTATGCTTAATTAATTACTACTTTTCTCTTCGGAGTCACCTAGTGCAG | 47800 fluorescence intensity (a.u.)
11 | GTTTCTTAATTAAATTCGATGCGCGTGTCCACGGCCTGCACGGAGTCACCTAGTGCAG | 12500 fluorescence intensity (a.u.)
12 | CATTGTTTAATTATCAACGAGTATCATCAAAATATCATCCCGGAGTCACCTAGTGCAG | 6840 fluorescence intensity (a.u.)
13 | CACTTTGACAGCCATGTGCCGCGGCGCCTGTGGATTATTCCGGAGTCACCTAGTGCAG | 3730 fluorescence intensity (a.u.)
14 | CGCCGGCGCTGTGATTGATAGCCTTGCAAACCAGGGTTTGCGGAGTCACCTAGTGCAG | 29500 fluorescence intensity (a.u.)
15 | TTTATCGTACAATTACAATATAATTATAACGTATACCATGCGGAGTCACCTAGTGCAG | 5240 fluorescence intensity (a.u.)
16 | TGATGACTGTAGTTTGCTTGTTCCGAATGATTTATCCTATCGGAGTCACCTAGTGCAG | 4390 fluorescence intensity (a.u.)
17 | TGTAACATGATAATTTAACTCGGCTCTTTTCAGAATATTTCGGAGTCACCTAGTGCAG | 10200 fluorescence intensity (a.u.)
18 | ATCAATTTTAAAATTAAATTTTAATTTTAAATTTTGAATTCGGAGTCACCTAGTGCAG | 26900 fluorescence intensity (a.u.)
19 | TCATTAAATACAAATTATGCGGATCGGGTATCCTTACTGTCGGAGTCACCTAGTGCAG | 3470 fluorescence intensity (a.u.)
20 | GCACCTTTCAAATTCATCTGATTTATGCATTCTTCTGTAACGGAGTCACCTAGTGCAG | 3340 fluorescence intensity (a.u.)
21 | AACTTATTCCAATTATCAAACTCCGCTGCTCAACCAGGCCCGGAGTCACCTAGTGCAG | 5860 fluorescence intensity (a.u.)

Row | Sequence | binding signal
22 | CATTAATATATAATTAATTAAATATTAGCTATATTTTGAACGGAGTCACCTAGTGCAG | 41000 fluorescence intensity (a.u.)
23 | AACAATTGACGTTTTGGATAAGGTTGAAGTCAAACTTTTACGGAGTCACCTAGTGCAG | 7430 fluorescence intensity (a.u.)
24 | CCTTGTTTTGAAGATTTAATTGCAACGAATTTAATGGTGCCGGAGTCACCTAGTGCAG | 3290 fluorescence intensity (a.u.)
25 | AGATTAATTGTGTATCTGTGCCATCTGTCGGTAACATTACCGGAGTCACCTAGTGCAG | 15400 fluorescence intensity (a.u.)
26 | AATGTTAATCACACAATGAAAATTATGCAAGAAGAGGTAACGGAGTCACCTAGTGCAG | 6380 fluorescence intensity (a.u.)
27 | CTCCAATCAACCGTCCAATTCAGTCATACTCCGTAGTCCGCGGAGTCACCTAGTGCAG | 22600 fluorescence intensity (a.u.)
28 | ATGATTTTAGCTAAACCGAAATCTACACACAAGGAGTACTCGGAGTCACCTAGTGCAG | 6130 fluorescence intensity (a.u.)
29 | GCAAAATGGAAAAGATTAAACAGCTATATCAATGAGGATTCGGAGTCACCTAGTGCAG | 3300 fluorescence intensity (a.u.)
30 | ATAACTTAATCACATTTCCACACACACTGTTAACTTGAACCGGAGTCACCTAGTGCAG | 6070 fluorescence intensity (a.u.)
31 | AAAGTTTAAATTGTCAAAATTTTGTCGTATACTGTCCCTACGGAGTCACCTAGTGCAG | 6000 fluorescence intensity (a.u.)
32 | AATAATTTTATGGTTATTTAAAACATTTAAATTTGAGACTCGGAGTCACCTAGTGCAG | 9060 fluorescence intensity (a.u.)
33 | ACATTATAAATTTGCTATTGTTGCAATTTGGACCACCACGCGGAGTCACCTAGTGCAG | 4640 fluorescence intensity (a.u.)
34 | TAGTAACTGATGTGTGTGTGTGTGCAGTCTCCGTGCGTGTCGGAGTCACCTAGTGCAG | 6590 fluorescence intensity (a.u.)
35 | AAAACAGATACCAATAGATGATTAGATGAAGTGAGGAGAGCGGAGTCACCTAGTGCAG | 6570 fluorescence intensity (a.u.)
36 | AAAATAGCTAATGCTTAATTAATCACGCGCTAATGGATCGCGGAGTCACCTAGTGCAG | 6230 fluorescence intensity (a.u.)
37 | GCACATTAACTGATCACACCATCATCGCATCAAAGATGCACGGAGTCACCTAGTGCAG | 7430 fluorescence intensity (a.u.)
38 | TTAAATAATAAGAATTGTTGATTGCATATAATTAGTTTACCGGAGTCACCTAGTGCAG | 9070 fluorescence intensity (a.u.)
39 | GTGGAACCCTAATTGAAGTCGATTTCTGGTAGTACAAGTTCGGAGTCACCTAGTGCAG | 10700 fluorescence intensity (a.u.)
40 | TTGACTATTAAATTGGCTATAGATAAATTGGAGCTAGTAGCGGAGTCACCTAGTGCAG | 23600 fluorescence intensity (a.u.)
41 | GACTTTATAATTTTACTATTCTATTATAAAATCAGTCAATCGGAGTCACCTAGTGCAG | 4190 fluorescence intensity (a.u.)
42 | GCTAGATTGGAAGTGGGCAAGGAAGCCGCTTTCTCCCGTACGGAGTCACCTAGTGCAG | 27500 fluorescence intensity (a.u.)
